The whole screen tested about 45,000 compounds, of which about 200 (0.44%) were called active. Roughly 7% stayed inconclusive and do not appear here. The call rests on the fitted dose curve; in most records, active means well fitted activation curve with a large enough effect; inconclusive means small, poorly fitted or top-dose-only effect; inactive means no such curve, though single readings can be large or run the other way. The list shows a part of the results.
test: qHTS of TDP-43 Inhibitors: NCGC Sytravon Library Screen; conditions: yeast TDP-43 toxicity rescue, BacTiter-Glo growth, 24 h; series mostly up to 46.1 µM; growth rescue (activation): at the top concentration; further: nearly all actives have a fitted effect of over 55% in size; on growth rescue (activation): 0% is about no effect
Outline: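 TDP-43-expressing yeast, pregrown in raffinose, seeded at OD600 0.02 in galactose medium with compound for 24 hr at 30 deg C. Growth read by BacTiter-Glo luminescence, so rescue of toxicity appears as activation.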
Potency means the concentration at half of the fitted maximal effect.

Row | SMILES | Potency | growth rescue (activation)
1 | C=CCN=c1scc(-c2ccc(F)cc2)n1/N=C/c1ccccn1 | active: 11.2 µM | 
2 | NC(=O)N/N=C(/CCCCCC/C(=N\NC(N)=O)c1ccccc1)c1ccccc1 |  | inactive: 4.73%
3 | NC(=O)c1ccsc1NC(=O)COC(=O)/C=C/c1ccc([N+](=O)[O-])cc1 |  | inactive: -1.64%
4 | CCOc1ccc(N=C(/C(C(=O)C(=O)N2CCOCC2)=C(\O)c2ccccc2)c2ccccc2)cc1 |  | inactive: 17.2%
5 | CC1(C)C2CCC1(CS(=O)(=O)Nc1ccc(S(=O)(=O)N3CCCC3)cc1)C(=O)C2 (stereo not drawn) |  | inactive: 7.56%
6 | COc1ccc(C(=O)N2CCCC(Nc3ccc(C)c(C)c3)C2)c(OC)n1 (stereo not drawn) |  | inactive: 13.1%
7 | CCCS(=O)(=O)NC(=O)C1(C)CCN(C(=O)c2c(F)cccc2F)C1 (stereo not drawn) |  | inactive: -5.03%
8 | COCCn1c(C)cc(C(=O)CSc2cc(C)c3ccc(OC)cc3n2)c1C |  | inactive: 22.8%
9 | Cc1cc(C(=O)N/N=C/C=C/c2ccccc2)c(C)o1 |  | inactive: -2.62%
10 | COC(=O)c1ccc(NC(=O)c2c(C(=O)Nc3ccccc3)sc3nc(C)cc(=O)n23)cc1 |  | inactive: -7.36%
11 | Cc1ccc([N+](=O)[O-])cc1NC(=O)CSc1nncn1-c1ccccn1 |  | inactive: 8.27%
12 | CCOc1ccc(C(=O)NCC(=O)NCC2CCCCC2)cc1OCC |  | inactive: 6.64%
13 | Cc1cccn2c(=O)c3cc(C(=O)NC4CCCC4)c(=N)n(CCCN4CCOCC4)c3nc12 |  | inactive: -5.69%
14 | O=c1oc2ccccc2nc1/C=C(O)/C=C/c1ccc(F)cc1 |  | inactive: -33.9%
15 | COC(=O)c1sc2nc(C)nc(SCC(=O)N3CCC(C(=O)O)CC3)c2c1C |  | inactive: 0.532%
16 | Cc1c(NCc2cccnc2)cccc1C(=O)O |  | inactive: 2.73%
17 | COc1cccc(OC)c1C(=O)N1CCN(Cc2cccnc2)CC1 |  | inactive: -8.5%
18 | Cc1cc(Br)ccc1NC(=O)CNC(=O)CSc1nccn1C |  | inactive: 8.83%
19 | COc1ccccc1N1CCN(C(=O)c2coc(=O)c(Br)c2)CC1 |  | inactive: -2.33%
20 | COc1ccc(CN2CCCC(CO)(Cc3cccc(Cl)c3)C2)cc1OC (stereo not drawn) |  | inactive: 1.52%
21 | CCOC(=O)c1ccc(S(=O)(=O)N2CCN(C(=O)CSc3nc4ccccc4o3)CC2)cc1 |  | inactive: 8.92%
22 | CC(=O)Nc1ccc(C(=O)N2CCCCC2c2cc(C(=O)NCc3cccnc3)no2)cc1 (stereo not drawn) |  | inactive: 12.5%

Row | SMILES | Potency | growth rescue (activation)
23 | NC(=O)c1cc(-c2csc(-c3cccnc3)n2)ccc1O |  | inactive: 14.7%
24 | COc1ccccc1N1CCN(C(=O)c2cc(=O)c3cc(C)cc(C)c3o2)CC1 |  | inactive: 11.7%
25 | Cc1oc2cc(O)ccc2c(=O)c1-c1ccccc1 |  | inactive: 18.5%
26 | CC(C)Cn1c(/C=C/c2ccccc2)nc2ccccc21 |  | inactive: 10.3%
27 | Cc1cc(C)cc(NC(=S)N(Cc2cccc(Br)c2)CC2CCC(C(=O)O)CC2)c1 (stereo not drawn) |  | inactive: 14.6%
28 | COc1ccc2oc(C(=O)c3ccccc3)c(NC(=O)CN3CCN(C)CC3)c2c1 |  | inactive: 25.8%
29 | CC(C)C(NC(=O)C1CC(=O)N(Cc2ccccc2)C1)c1nc2ccccc2[nH]1 (stereo not drawn) |  | inactive: -1.14%
30 | COc1ccccc1C(=O)OCCNC(=O)Cn1cnc2c1c(=O)n(C)c(=O)n2C |  | inactive: -19.6%
31 | C/C(CC(=O)NCc1ccc(Cl)cc1)=N\NC(=O)COc1ccc(C)cc1Br |  | inactive: -10.6%
32 | Cc1cccc(C(=O)NCC(c2ccc(F)cc2)N2CCOCC2)c1 (stereo not drawn) |  | inactive: 27.7%
33 | COCCNC(=O)CN(c1ccc(F)cc1)S(=O)(=O)c1ccc2c(c1)OCCO2 |  | inactive: 11.3%
34 | Cc1ccc(C)c(OCc2cc(C(=O)NC3CCOC(C)(C)C3)no2)c1 (stereo not drawn) |  | inactive: 20%
35 | COc1cc(CNCCc2ccc(S(N)(=O)=O)cc2)ccc1OCC(=O)NC(C)(C)C |  | inactive: 9.63%
36 | CCN1CCN(C(=S)NCc2ccc(C)cc2)CC1 |  | inactive: 9.44%
37 | Oc1ccc(/C=N/N=C/c2ccc(O)c(O)c2)cc1O |  | inactive: -0.268%
38 | CC(C)c1ccc(NC(=O)COC(=O)C2=COCCO2)cc1 |  | inactive: 11.3%
39 | Cc1ccc(S(=O)(=O)N2CCC(C(=O)O)CC2)cc1 |  | inactive: -10.2%
40 | CCOC(=O)c1c(NC(=O)COc2c(C)cc(Cl)cc2Cl)sc2c1CCCC2 |  | inactive: -4.34%
41 | Cc1ccc(C(=O)Nc2ccc(Cl)cc2C(F)(F)F)c(Cl)c1 |  | inactive: 13%
42 | O=C(CSc1ccccc1)NC1=NCCS1 |  | inactive: 2.3%
43 | Cc1[nH]n(-c2ccccc2)c(=O)c1-c1ccccc1 |  | inactive: 15.6%
44 | CCC(C)(C)NC(=O)C(c1cccn1C)N(C(=O)Cn1nnc2ccccc21)c1ccc(NC(C)=O)cc1 (stereo not drawn) |  | inactive: 3.87%

Row | SMILES | Potency | growth rescue (activation)
45 | Cc1cc(C(F)(F)F)n2[nH]c(=O)c(N=Nc3ccccc3)c2n1 |  | inactive: 26.4%
46 | O=C(COC(=O)COc1ccc(Cl)cc1)Nc1ccc(N2CCOCC2)cc1 |  | inactive: -14.9%
47 | CCOC(=O)N1CCC(=NNC(=O)NC2CCCCC2)CC1 |  | inactive: 1.61%
48 | CC1CN(C)C(C)C/C1=N\Oc1ccc([N+](=O)[O-])cc1 (stereo not drawn) |  | inactive: -0.946%
49 | Cc1ccc2c(c1)C(=O)C(=O)N2CC1COc2ccccc2O1 (stereo not drawn) |  | inactive: -28.5%
50 | O=C(Nc1nc(-c2ccccc2)cs1)c1cccc([N+](=O)[O-])c1C(=O)O |  | inactive: 13.5%
51 | COc1ccc(-n2cc(CNCCc3cscn3)c(-c3ccccc3Cl)n2)cc1 |  | inactive: 0.59%
52 | CC(C(=O)NCc1cccc(Cl)c1)N1C(=O)c2ccccc2C1=O (stereo not drawn) |  | inactive: 6.97%
53 | COc1ccc(CNC(=O)C(c2ccccc2F)N(C(=O)c2csnn2)C2CC2)cc1 (stereo not drawn) |  | inactive: -11%
54 | Cc1ccc2c(COC(=O)C3CC(=O)N(c4ccc5c(c4)OCCO5)C3)cc(=O)oc2c1 (stereo not drawn) |  | inactive: 10.3%
55 | COc1ccccc1CNC(=O)COC(=O)c1ccc(C(=O)c2ccccc2)cc1 |  | inactive: 14.5%
56 | O=[N+]([O-])c1cc(S(=O)(=O)N2CCCCCC2)ccc1F |  | inactive: -0.796%
57 | CCCNC(=O)C1(C)CCCN(Cc2ccccc2F)C1 (stereo not drawn) |  | inactive: 6.65%
58 | O=C(CN1C(=O)NC2(CCCc3ccccc32)C1=O)N1CCc2ccccc2C1 (stereo not drawn) |  | inactive: -22.1%
59 | COc1cc(CNc2nc3ccccc3s2)cc(OC)c1OC |  | inactive: 2.64%
60 | COc1cc(Cl)c(C)cc1NC(=O)c1cc(S(=O)(=O)N(C)C)ccc1N1CCCC1 |  | inactive: 2.18%
61 | C#CC[N+](C)(C)CCCCCCCCC |  | inactive: -7.13%
62 | O=C(CCCCCn1c(=O)c2sccc2n(CC(=O)Nc2cccc(Cl)c2)c1=O)NCc1ccc2c(c1)OCO2 |  | inactive: -5.76%
63 | Cn1c(N)c(N=O)c(=O)n(C)c1=O |  | inactive: 3.23%
64 | COCCn1cnc2c1c(=O)n(CC(=O)OCC#N)c(=O)n2Cc1ccccc1 |  | inactive: 8.64%
65 | COCc1c(C(=O)Nc2ccc3nc(N4CCOCC4)sc3c2)oc2ccccc12 |  | inactive: 5.93%
66 | CC(=O)Nc1ccc(S(=O)(=O)NC2CCSc3ccccc32)cc1 (stereo not drawn) |  | inactive: -6.8%

Row | SMILES | Potency | growth rescue (activation)
67 | Cn1cccc1CC(=O)N/N=C/c1cccc([N+](=O)[O-])c1 |  | inactive: 5.78%
68 | c1cncc(-c2noc(-c3ccco3)n2)c1 |  | inactive: -0.073%
69 | COc1ccc(NC(=S)Nc2cc(C)[nH]n2)cc1Cl |  | inactive: 2.09%
70 | COc1ccc(CCC(=O)OCC(=O)Nc2ccc(OC)c(OC)c2)cc1OC |  | inactive: -9.24%
71 | CCCCn1c(SCC(=O)NC2CC2)nnc1-c1ccncc1 |  | inactive: 17.2%
72 | CCc1nnc(NC(=O)CCN2C(=O)/C(=C/c3cc(OC)c(OC)c(OC)c3)SC2=S)s1 |  | inactive: 9.85%
73 | CC1(C)CC(=O)C=C(NNC(=O)c2ccccc2)C1 |  | inactive: 1.27%
74 | O=C1C=C(O)c2cccc3cccc1c23 |  | inactive: -20.4%
75 | CCOc1cc(S(=O)(=O)n2ccc(C)n2)ccc1Br |  | inactive: 6.41%
76 | CCCC(=O)Nc1cccc(S(=O)(=O)N(C)c2ccccc2)c1 |  | inactive: 16.9%
77 | CCCc1cc2c(=O)c(-c3nc4ccccc4s3)c(COCC(=O)O)oc2cc1O |  | inactive: 8.66%
78 | CCn1cnc2c1c(=O)n(CC(=O)O)c(=O)n2Cc1ccccc1 |  | inactive: 0.904%
79 | CN(C(=O)c1ccc(Br)o1)C1CCS(=O)(=O)C1 (stereo not drawn) |  | inactive: -11.2%
80 | COc1ccc(NC(=O)c2cc(S(=O)(=O)N3CCCCC3)ccc2C)cc1S(=O)(=O)N1CCOCC1 |  | inactive: 3.57%
81 | CCOC(=O)n1cc(C(=O)c2ccccc2O)cn1 |  | inactive: -9.58%
82 | COC(=O)c1ccc(/C=C/C(=O)OCC(=O)Nc2sccc2C(N)=O)cc1 |  | inactive: 8.6%
83 | CC(Sc1nnc(C2CC2)n1C)C(=O)Nc1ccc(N2CCOCC2)cc1 (stereo not drawn) |  | inactive: -10.6%
84 | CCC(C(=O)NCCc1c[nH]c2ccc(C)cc12)c1ccccc1 (stereo not drawn) |  | inactive: -0.825%
85 | Cc1cc(N)n(-c2cc(C)c3ccccc3n2)n1 |  | inactive: 23.8%
86 | Cc1nc(Cl)nc(N(C)c2ccccc2)c1[N+](=O)[O-] |  | inactive: 5.46%
87 | COC(=O)N1CCCCC1c1cc(C(=O)Nc2ccc3c(c2)OCO3)no1 (stereo not drawn) |  | inactive: 20.2%
88 | CCCC(c1nnnn1C(C)(C)C)N1CCN(C(=O)c2ccco2)CC1 (stereo not drawn) |  | inactive: 5.67%

Row | SMILES | Potency | growth rescue (activation)
89 | CCCOC(=O)C1[C@H]2C(=O)N(CC3CCCO3)C[C@]23C=C[C@H]1O3 (stereo partly drawn) |  | inactive: -2.08%
90 | CC(=O)N(Cc1cc(=O)[nH]c2ccccc12)c1ccc(C)cc1C |  | inactive: -9.26%
91 | Cc1cc(NC(=O)CSc2ccc(-c3ccc(F)cc3)nn2)no1 |  | inactive: 17.2%
92 | COC(=O)c1ccc2c(=O)n(Cc3ccc(C(=O)NCCCN4CCC(C)CC4)cc3)c(=S)[nH]c2c1 |  | inactive: 6.06%
93 | O=C1NC(=Nc2cccc(O)c2)S/C1=C\c1cccnc1 |  | inactive: -0.359%
94 | Cc1ccc(NC(=S)Nc2cc(C(=O)O)ccc2N2CC3CC(C2)c2cccc(=O)n2C3)cc1C (stereo not drawn) |  | inactive: 7.06%
95 | COc1ccc(Cl)cc1S(=O)(=O)NC(C)C(=O)NCc1ccccn1 (stereo not drawn) |  | inactive: -0.147%
96 | CCC(CC)NC(=O)c1ccc(Cl)cc1 |  | inactive: 8.36%
97 | c1ccc(C2=Nc3cccc4cccc(c34)N2)cc1 |  | inactive: -15.3%
98 | COc1cccc(Oc2ccc(C(F)(F)F)cc2N)c1 |  | inactive: -12.6%
99 | CCc1noc(C)c1C(=O)N1CCCC(N2CCN(c3cccc(Cl)c3)CC2)C1 (stereo not drawn) |  | inactive: -3.61%
100 | CCCNC(=O)C1(C)CCCN(C(=O)COc2ccc(Cl)cc2Cl)C1 (stereo not drawn) |  | inactive: -0.876%
101 | Cc1ccc(NS(=O)(=O)c2cc(C(=O)Nc3cccnc3)ccc2C)cc1 |  | inactive: 13.6%
102 | COc1ccccc1NC(=O)COC(=O)/C=C/c1ccc2c(c1)OCO2 |  | inactive: -4.88%
103 | CCOC(=O)c1sc(N(C)C(C)=O)nc1C |  | inactive: 44%
104 | COc1ccc(-c2nnc3n2CCCCC3)cc1OC |  | inactive: -14.1%
105 | O=C(COC(=O)Cn1cnc2ccccc21)Nc1ccc(F)c(F)c1 |  | inactive: 10.6%
106 | Cc1ccc(NC(=O)c2ccc3c(c2)OCCO3)cc1C |  | inactive: -22.9%
107 | O=C(COC(=O)c1ccccc1C(=O)c1ccccc1)Nc1ccc(SC(F)F)cc1 |  | inactive: 5.27%
108 | OCCC1CN(Cc2ccc3ncccc3c2)CCN1Cc1ccccc1 (stereo not drawn) |  | inactive: -2.29%
